Source: PubChem BioAssay AID624296 (National Center for Advancing Translational Sciences (NCATS), 2012)
Among all 350,000 compounds or so, about 9,900 (2.8%) were called active. The inconclusive results got no clear call from the source; some entries with a clear call stand among them for comparison. Calls follow the shape of the dose curve; as a rule, active = well fitted activation curve with a large enough effect; inconclusive = small, poorly fitted or top-dose-only effect; inactive = no such curve, though single readings can be large or run the other way. Potencies of inconclusive entries are left out as doubtful fits.

Experiment: A quantitative high throughput screen for small molecules that induce DNA re-replication in MCF 10a normal breast cells. Also: nearly all actives have a fitted effect of over 50% in size.
Details: MCF 10A DNA re-replication, Hoechst nuclear intensity, 48 h; series mostly up to 46.1 µM
Potency is read from the fitted curve at half-maximal effect; tags tell the direction and shape of the fitted curve.

SMILES	Potency
COc1cc2ccc(=O)oc2c(O[C@@H]2O[C@H](CO)[C@@H](O)[C@H](O)[C@H]2O)c1O	active: 16.4 µM
CN1CCN(c2ccc(NC(=O)c3ccc4c(c3)OCCO4)cc2)CC1	inconclusive [activator, single point]
COC(=O)c1ccc(CSc2nc3ccccc3s2)o1	inconclusive [activator, partial curve, poor fit]
C[C@H](CO)N1C[C@H](C)[C@@H](CN(C)C(=O)Nc2ccc(C(F)(F)F)cc2)Oc2c(NC(=O)C3CCCCC3)cccc2C1=O	inactive
COc1ccc(C(=O)Nc2c(Cl)cc(Cl)cc2C(=O)N2CCC(C)CC2)cc1	inconclusive [activator, single point]
COc1ccc2nc3ccccc3nc2c1N	inconclusive [activator, single point]
Cc1nc2ccc(Cl)cc2c(-c2ccccc2Cl)c1CC(=O)O	inconclusive [activator, single point]
CCOc1ccc(C2=Nn3c(nnc3-c3ccccc3OC)SC2)cc1	inconclusive [activator, full curve, poor fit]
O=C(N/N=C/c1ccc(OC(F)F)cc1OC(F)F)NC1CCCCC1	inconclusive [activator, partial curve, poor fit]
CCOc1ccc2[nH]c(SCC(=O)OC)c([N+](=O)[O-])c2c1	inconclusive [activator, single point]
CC(c1cccnc1)N(CCN(C)C)C(=O)Nc1ccc(Cl)cc1 (stereo unspecified)	inactive
CCCn1c(=O)c2ccccc2n2c(=S)[nH]nc12	inactive
Cc1ccc(/C=C/c2nc3sc(C(=O)O)c(C)c3c(=O)[nH]2)cc1[N+](=O)[O-]	inactive
Cc1ccccc1Nc1c(-c2ccncc2)nc2ccc(Br)cn12	inconclusive [activator, single point]
Cc1cccc(C)c1N(CC(=O)NCc1ccco1)C(=O)CNS(=O)(=O)c1ccc(F)cc1	inactive
COC(=O)c1ccc(NC(=S)NC2CC3CCC2C3)cc1 (stereo unspecified)	inconclusive [activator, full curve, poor fit]
Fc1ccccc1NC(=S)N1CCN(c2ccccn2)CC1	inconclusive [activator, partial curve, poor fit]
COc1ccc2[nH]c(=O)c(CN(C(C)=O)c3ccc(C)cc3C)cc2c1	inconclusive [activator, single point]
CC=Cc1cc(OC)c2c(c1)C(C)C(c1ccc(O)c(OC)c1)O2 (stereo unspecified)	inconclusive [activator, single point]
Cc1ccccc1NC(=O)NC1(C(=O)NCc2ccco2)CCCCC1	inactive
Cc1noc(NS(=O)(=O)c2ccc(NC(=O)Nc3ccc(Cl)c(Cl)c3)cc2)c1C	inconclusive [activator, single point]
CC(Sc1nnc(-c2ccncc2)n1-c1ccc(F)cc1)C(=O)NC1CC1 (stereo unspecified)	inactive
O=C(COC(=O)CC1CC2CCC1C2)NCc1ccccc1 (stereo unspecified)	inactive
Cc1ccccc1SCC(=O)OCC(=O)Nc1sccc1C(N)=O	inactive

SMILES	Potency
CCCCCCc1ccc(-c2ncc(N)cn2)cc1	active: 12.6 µM
O=C(c1ccccc1)c1nccc2ccccc12	inconclusive [activator, partial curve, poor fit]
Cc1c(C(=O)Nc2nc(-c3ccccn3)cs2)oc2ccccc12	active: 23.1 µM
Oc1c(/C=N/Nc2cccc3cccnc23)ccc2ccccc12	inconclusive [activator, single point]
CCc1cc2c3c(c(=O)oc2cc1OC(C)C(=O)O)CCCC3 (stereo unspecified)	inconclusive [activator, partial curve, poor fit]
CCCCCCC(O)(c1ccc(OC)cc1)C(CN1CCOCC1)c1ccccc1 (stereo unspecified)	inconclusive [activator, single point]
COC(=O)c1ccccc1S(=O)(=O)NNC(=O)c1nn(C)c(=O)c2ccccc12	inactive
CCNC(=S)Nc1cc(OCC)c(NC(=O)c2cccs2)cc1OCC	inactive
CN1CCc2cccc3c2[C@H]1Cc1ccc(O)c(O)c1-3	active: 2.91 µM
CN(c1ccccc1)S(=O)(=O)c1cccc(C(=O)NCCc2ccc(O)c(O)c2)c1	inconclusive [activator, single point]
Cc1c(C)n(CC(O)CN2CCCCCC2)c2ccccc12 (stereo unspecified)	inactive
CCS(=O)(=O)Nc1ccc(C2=NN(C(=O)c3ccccc3)C(c3cccs3)C2)cc1 (stereo unspecified)	inconclusive [activator, single point]
COc1ccc(-c2ccc(OC)c([C@H]3[C@@H]4C=CCC[C@@]4(C)C(=O)N3Cc3ccccc3)c2)cc1OC	inconclusive [activator, partial curve, poor fit]
CC(C/C=N/NC(=O)COc1cc(Cl)ccc1Cl)c1ccccc1 (stereo unspecified)	inconclusive [activator, partial curve, poor fit]
Cc1ccc(Cl)cc1NC(=S)NCc1cccn1C	inactive
COc1ccc(CNC(=O)COC(=O)c2c(-c3c(F)cccc3Cl)noc2C)cc1OC	inactive
Cc1ccc2cc(C)c3nnc(SCC(=O)Nc4nc5c(s4)CCCC5)n3c2c1C	inconclusive [activator, partial curve, poor fit]
COc1ccc(-c2csc(N3CCN(c4cc5c(cc4Cl)nc(-c4ccncc4)n5CCOCCO)CC3)n2)cc1	inconclusive [activator, partial curve, poor fit]
COc1ccc(NC(=O)c2ccc3ccccc3c2OC)cc1	inconclusive [activator, single point]
COc1cc(-n2nc(C)c3c2OC(N)=C(C#N)C3c2ccccc2)c(Cl)c(Br)c1O (stereo unspecified)	inconclusive [activator, single point]
Cc1ccc(C(=O)N2CCN(c3ccccn3)CC2)cc1C	inactive
CCCCCOC(=O)Nc1nc(=O)n(C2O[C@H](C)[C@@H](O)[C@@H]2O)cc1F (stereo partly specified)	inactive
COc1ccc(C(O)c2nccn2Cc2ccccc2)cc1OC (stereo unspecified)	inconclusive [activator, single point]
COc1cc(/C=C2\SC(=Nc3ccc(O)cc3)NC2=O)cc(OC)c1O	inconclusive [activator, full curve, poor fit]

SMILES	Potency
COc1cc(-c2nnc3sc(C4CCCCC4)nn23)cc(OC)c1OC	active: 20.6 µM
CC(C)C1CC(CCNCc2ccc(N(C)C)cc2)(c2ccccc2)CCO1 (stereo unspecified)	inconclusive [activator, single point]
CCOC(=O)c1cc(NC(=O)CNCC(c2ccccc2)N(C)C)cc(C(=O)OCC)c1 (stereo unspecified)	inconclusive [activator, single point]
COc1ccc(-c2ccc(SCC(=O)NC3CCCCC3)nn2)cc1OC	inactive
O=C(NCc1cccs1)C1CC(c2ccc(Cl)c(Cl)c2)=NO1 (stereo unspecified)	active: 2.31 µM
CC(=O)c1c(C)[nH]c(C(=O)N2CCCCCC2)c1C	inconclusive [activator, single point]
CCOC(=O)c1nc(Nc2ccc(Nc3ccccc3)cc2)c2ccccc2n1	inconclusive [activator, partial curve, poor fit]
Cc1cccn2c(=O)c3cc(C(=O)N4CC(C)CC(C)C4)sc3nc12 (stereo unspecified)	inconclusive [activator, single point]
Cc1ccc(NC(=O)c2cc(N3C(=O)C=CC3=O)ccc2N2CCOCC2)cc1Cl	active: 16.4 µM
COc1cccc(CN2CC(C(=O)NCCN3CCOCC3)CCC2=O)c1 (stereo unspecified)	inactive
CC(C)C(=O)NC(=S)/C=C1/N(C)c2ccccc2C1(C)C	inactive
Cc1c(O)ccc2c3c(c(=O)oc12)CCCC3	inconclusive [activator, partial curve, poor fit]
N#CC1=C(N)N(c2ccc(Br)cc2)C2=C(C(=O)CCC2)C1c1cccnc1 (stereo unspecified)	inconclusive [activator, partial curve, poor fit]
CC(C)(C)CC(=O)OCC(=O)Nc1cc(C(C)(C)C)nn1-c1ccccc1	inconclusive [activator, full curve]
COc1cccc(Nc2ncnc3c2cnn3C)c1	inconclusive [activator, partial curve, poor fit]
CCOc1ccc(OCCSc2nc3ccccc3[nH]2)cc1	inactive
CCOC(=O)c1cc(-c2ccc(N3CCOCC3)cc2)nn1-c1ccccc1	inactive
COC(=O)c1cccc(C23CC4(C2)[C@H](CN(Cc2cccnc2)[C@@H]4c2ccccc2)C3c2ccccc2)c1 (stereo partly specified)	inconclusive [activator, partial curve, poor fit]
CC(C)(C)NC(=O)c1oc2ccccc2c1COc1ccccc1	inconclusive [activator, single point]
CCCOc1ccc(CC(=O)NCCc2ccccc2)cc1OC	inconclusive [activator, partial curve]
CCOC(=O)c1ccc(-c2c(-c3ccc4c(c3)OCO4)noc2C)cc1F	inconclusive [activator, full curve, poor fit]
COc1ccc(-n2c(=O)c(CCC(=O)N3CCC(C)CC3)nc3ccccc32)cc1	inactive
COc1ccc(OC)c(NC(=O)CSc2nnc(N)s2)c1	inconclusive [activator, single point]
